# Results published in publication PMC12040169 (PLOS Biology, 2025).
# Some of the results follow.
# Test system: T1, C. trachomatis L2/434/Bu expressing GFP (CTL2-GFP)
# T1 construct: L2/434/Bu GFP intracellular growth in HeLa cells
# Parameters: species or system HeLa; C. trachomatis total inclusion area by high-content imaging, normalised to DMSO
# Conditions: total inclusion area; 28.5 h, 10 µM; inhibitor
# Procedure, shortened: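 After bulk GFP and resorufin fluorescence reads, cells were fixed, stained with Hoechst and imaged by high-content microscopy. Inclusion area and number (GFP) stood in for chlamydial growth, nuclei count (Hoechst) for host cell viability. MICs were derived as for the bulk readout.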
row,SMILES,% of control remaining
1,O=C(Nc1nccs1)c1cc(=O)c2ccccc2o1 [CBK287570],94.6354
2,Cc1ccc(-c2noc(C(C)NC(=O)C3(Cn4ccnc4)CC3)n2)cc1 (stereo not shown) [CBK307661],76.7991
3,O=S(=O)(c1ccc2ccccc2c1)N1CCN(C2CCCCCCC2)CC1 [CBK264186G],101.412
4,COc1ccccc1CC(=O)N1C2CCC1CC(O)(c1ccco1)C2 (stereo not shown) [CBK284106],107.098
5,Cc1ccc(Cl)c(OC(C)C(=O)N2CCN(c3ccccn3)CC2)c1 (stereo not shown) [CBK304650],37.9499
6,CC(=O)c1ccc(-c2nc(-c3cccc(OC(F)(F)F)c3)cnc2N)cc1 [CBK064105],74.5907
7,O=C(O)COCC(=O)N1C[C@@H]2OCC(=O)N(Cc3ccccc3)[C@@H]2C1 [CBK289652],113.566
8,c1ccc2nc3c(nc2c1)sc1nc2ccccc2n13 [CBK268872],63.0476
9,N#CCCOc1nc2ccccc2nc1N1CCCC1 [CBK115763],81.9039
10,C[C@@H](Cn1nc2c(cc1=O)CCCC2)NC(=O)c1ccco1 [CBK284559],119.618
11,O=C(Nc1ccc2nc(CN3CCOCC3)[nH]c2c1)C1CCCCC1 [CBK305728],66.8903
12,C/C(=N\N)c1ccc2[nH]c3c(c2c1)CCC/C3=N\N [CBK261812],69.8539
13,COc1cc(OCc2ccccc2)ccc1CN1CCN(Cc2ccc3c(c2)OCO3)CC1 [CBK074768],73.7514
14,O=C(O)/C=C/c1cccc(-c2cnc3[nH]c(=O)n(C4CC4)c3n2)c1 [CBK065091],143.773
15,COc1ccc(C(=O)Nc2cnn(CCCC(=O)O)c2)cc1 [CBK270052],85.7583
16,FC(F)(F)c1cccc(-c2cn(-c3ccsc3)nn2)c1 [CBK112937],79.4113
17,O=C(NC[C@H]1C[C@@H]2CC[N@]1C[C@@H]2CN1CCN(c2ccccn2)CC1)Nc1ccccc1 [CBK289114],78.9777
18,O=C(c1ccc2[nH]nnc2c1)N1CCN(S(=O)(=O)Cc2ccccc2)CC1 [CBK295346],120.599
19,Cc1cc(SCC(C)C)n2ncnc2n1 [CBK261808],99.3763
20,Cc1onc(-c2ccccc2)c1C(=O)NC(=S)Nc1sc2c(c1C#N)CCC2 [CBK267492],106.575

row,SMILES,% of control remaining
1,CC(C)(CNC(=O)Cn1cc(C(=O)NC2CCCCC2)ccc1=O)c1cccc(F)c1 [CBK286110],127.34
2,c1ccn(CCOc2nccnc2-c2ccsc2)c1 [CBK106772],105.403
3,COc1ccc(CCC(=O)c2cnc3sc4c(n23)CCCCC4)cc1 [CBK016849],67.9106
4,c1ccc(C(NCc2cncs2)C2CCCC2)cc1 (stereo not shown) [CBK304812],90.5739
5,COc1ccc(-c2ccc3ccc(=O)[nH]c3n2)cc1C [CBK073712],119.655
6,Cc1nc(C)c(C(=O)NCC2CCCOC2)s1 (stereo not shown) [CBK282194],77.0397
7,CS(=O)(=O)N1CCc2cc(-c3csc(C4CC4)n3)ccc21 [CBK306347],77.3246
8,O=C(CSCc1c(F)cccc1Cl)NCc1ccncc1 [CBK268381],117.835
9,CCCCc1ccc(NC(=N)Nc2nc(C)cc(C)n2)cc1 [CBK262967],35.0563
10,O=C1OCCN1S(=O)(=O)c1ccc(CN2CCN(Cc3ccc(S(=O)(=O)N4CCOC4=O)cc3)CC2)cc1 [CBK024729],103.5
11,Cc1cn(CC(=O)N2CCC3(CCCNC3)C2)c(=O)[nH]c1=O (stereo not shown) [CBK153231C],86.0085
12,O=C(COc1ccc(F)cc1)Nc1cccc2[nH]ccc12 [CBK159653],100.433
13,O=C(COc1ccc(F)cc1)N1CCN(c2ncccn2)CC1 [CBK144499],100.644
14,O=C(COc1cccc2ccccc12)NNC(=O)C1CCCO1 (stereo not shown) [CBK263007],95.4757
15,O=C(CCN1CCCCC1)NC1Cc2ccccc2C1 [CBK200364],75.4884
16,CC(=O)c1c(-c2cccc3ccccc23)nc2n(CCN3CCCCC3)c3ccccc3n12 [CBK278243C],66.3172
17,COc1cccc(C(=O)Nc2ccc(-c3noc(-c4ccncc4)n3)cc2)c1 [CBK269892],75.1365
18,Cc1c(S(=O)(=O)Nc2ccc(C(O)(C(F)(F)F)C(F)(F)F)cc2)cnn1-c1ccccc1 [CBK062099],108.696
19,Nc1cccc(-c2ccc(OC3CCNCC3)cc2)c1 [CBK126959T],29.0399
20,CC(=O)Nc1cc(C(=O)Nc2ccc(Br)cc2)ccc1C [CBK267788],102.654
